These are yes or no findings as the source states them, for the method shown. Binding seen in cells or lysates may run through a third protein. Some results given as binding are weak or reduced against the parent protein; the word gives no strength. For some of these results: Sequences can lack the tags named with a protein. Each block holds one substance with its values, some of them ahead of it.
Legend:
[1] = target: T1, Suppressor of Fused (SuFu), endogenous (mouse (endogenous in C3H10T1/2)) (UniProt Q9Z0P7); assay: co-IP; anti-SuFu immunoprecipitates from total C3H10T1/2 cell lysates, blotted for Gli1 or Gli2; IgG as negative control; cells with or without daRac1, NSC23766 10 μg/ml 24 h, IPA-3 1 μM 24 h, shIFT88
T1 sequence: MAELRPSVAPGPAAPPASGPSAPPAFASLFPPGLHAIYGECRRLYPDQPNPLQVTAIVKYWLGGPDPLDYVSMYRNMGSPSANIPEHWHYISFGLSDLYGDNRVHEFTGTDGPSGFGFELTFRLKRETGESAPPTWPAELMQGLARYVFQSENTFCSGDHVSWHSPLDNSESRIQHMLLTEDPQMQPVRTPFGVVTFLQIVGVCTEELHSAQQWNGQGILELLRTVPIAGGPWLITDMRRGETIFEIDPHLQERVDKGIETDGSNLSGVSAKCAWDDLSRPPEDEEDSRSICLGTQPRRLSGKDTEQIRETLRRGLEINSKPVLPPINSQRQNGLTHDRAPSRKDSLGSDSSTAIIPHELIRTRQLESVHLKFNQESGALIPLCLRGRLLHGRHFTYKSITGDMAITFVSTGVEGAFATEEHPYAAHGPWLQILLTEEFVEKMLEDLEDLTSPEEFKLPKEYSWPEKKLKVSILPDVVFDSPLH

The chains behind the UniProt entries cited, without tags or fusion partners. Residues count along the entry.
UniProt P47806: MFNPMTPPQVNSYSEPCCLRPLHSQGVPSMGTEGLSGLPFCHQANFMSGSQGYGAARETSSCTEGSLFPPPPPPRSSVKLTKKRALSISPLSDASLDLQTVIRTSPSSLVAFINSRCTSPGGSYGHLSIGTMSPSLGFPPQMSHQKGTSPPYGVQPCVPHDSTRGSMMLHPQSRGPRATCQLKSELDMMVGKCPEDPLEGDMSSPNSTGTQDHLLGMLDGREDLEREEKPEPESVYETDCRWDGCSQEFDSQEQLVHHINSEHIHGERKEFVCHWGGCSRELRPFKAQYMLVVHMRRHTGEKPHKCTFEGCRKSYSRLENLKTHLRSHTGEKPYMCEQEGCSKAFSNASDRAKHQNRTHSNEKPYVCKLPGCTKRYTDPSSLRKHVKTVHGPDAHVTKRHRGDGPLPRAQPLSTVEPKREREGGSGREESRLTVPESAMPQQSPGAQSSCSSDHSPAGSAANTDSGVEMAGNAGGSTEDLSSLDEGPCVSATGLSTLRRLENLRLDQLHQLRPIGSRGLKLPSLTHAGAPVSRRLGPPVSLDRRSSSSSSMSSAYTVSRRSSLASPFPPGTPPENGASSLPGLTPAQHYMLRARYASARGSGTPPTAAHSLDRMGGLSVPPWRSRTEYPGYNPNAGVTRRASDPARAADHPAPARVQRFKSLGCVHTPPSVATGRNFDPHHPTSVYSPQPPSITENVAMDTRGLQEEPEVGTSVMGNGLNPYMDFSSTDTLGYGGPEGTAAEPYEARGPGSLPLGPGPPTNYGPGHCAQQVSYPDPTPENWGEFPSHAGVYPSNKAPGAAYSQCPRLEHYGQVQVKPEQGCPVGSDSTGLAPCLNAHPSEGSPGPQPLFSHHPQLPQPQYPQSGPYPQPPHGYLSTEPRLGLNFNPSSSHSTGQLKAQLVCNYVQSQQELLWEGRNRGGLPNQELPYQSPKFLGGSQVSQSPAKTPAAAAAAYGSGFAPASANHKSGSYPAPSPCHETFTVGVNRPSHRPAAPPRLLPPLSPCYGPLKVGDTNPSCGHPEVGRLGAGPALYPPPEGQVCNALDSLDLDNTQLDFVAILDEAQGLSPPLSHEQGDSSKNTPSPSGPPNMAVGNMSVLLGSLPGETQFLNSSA
UniProt Q0VGT2: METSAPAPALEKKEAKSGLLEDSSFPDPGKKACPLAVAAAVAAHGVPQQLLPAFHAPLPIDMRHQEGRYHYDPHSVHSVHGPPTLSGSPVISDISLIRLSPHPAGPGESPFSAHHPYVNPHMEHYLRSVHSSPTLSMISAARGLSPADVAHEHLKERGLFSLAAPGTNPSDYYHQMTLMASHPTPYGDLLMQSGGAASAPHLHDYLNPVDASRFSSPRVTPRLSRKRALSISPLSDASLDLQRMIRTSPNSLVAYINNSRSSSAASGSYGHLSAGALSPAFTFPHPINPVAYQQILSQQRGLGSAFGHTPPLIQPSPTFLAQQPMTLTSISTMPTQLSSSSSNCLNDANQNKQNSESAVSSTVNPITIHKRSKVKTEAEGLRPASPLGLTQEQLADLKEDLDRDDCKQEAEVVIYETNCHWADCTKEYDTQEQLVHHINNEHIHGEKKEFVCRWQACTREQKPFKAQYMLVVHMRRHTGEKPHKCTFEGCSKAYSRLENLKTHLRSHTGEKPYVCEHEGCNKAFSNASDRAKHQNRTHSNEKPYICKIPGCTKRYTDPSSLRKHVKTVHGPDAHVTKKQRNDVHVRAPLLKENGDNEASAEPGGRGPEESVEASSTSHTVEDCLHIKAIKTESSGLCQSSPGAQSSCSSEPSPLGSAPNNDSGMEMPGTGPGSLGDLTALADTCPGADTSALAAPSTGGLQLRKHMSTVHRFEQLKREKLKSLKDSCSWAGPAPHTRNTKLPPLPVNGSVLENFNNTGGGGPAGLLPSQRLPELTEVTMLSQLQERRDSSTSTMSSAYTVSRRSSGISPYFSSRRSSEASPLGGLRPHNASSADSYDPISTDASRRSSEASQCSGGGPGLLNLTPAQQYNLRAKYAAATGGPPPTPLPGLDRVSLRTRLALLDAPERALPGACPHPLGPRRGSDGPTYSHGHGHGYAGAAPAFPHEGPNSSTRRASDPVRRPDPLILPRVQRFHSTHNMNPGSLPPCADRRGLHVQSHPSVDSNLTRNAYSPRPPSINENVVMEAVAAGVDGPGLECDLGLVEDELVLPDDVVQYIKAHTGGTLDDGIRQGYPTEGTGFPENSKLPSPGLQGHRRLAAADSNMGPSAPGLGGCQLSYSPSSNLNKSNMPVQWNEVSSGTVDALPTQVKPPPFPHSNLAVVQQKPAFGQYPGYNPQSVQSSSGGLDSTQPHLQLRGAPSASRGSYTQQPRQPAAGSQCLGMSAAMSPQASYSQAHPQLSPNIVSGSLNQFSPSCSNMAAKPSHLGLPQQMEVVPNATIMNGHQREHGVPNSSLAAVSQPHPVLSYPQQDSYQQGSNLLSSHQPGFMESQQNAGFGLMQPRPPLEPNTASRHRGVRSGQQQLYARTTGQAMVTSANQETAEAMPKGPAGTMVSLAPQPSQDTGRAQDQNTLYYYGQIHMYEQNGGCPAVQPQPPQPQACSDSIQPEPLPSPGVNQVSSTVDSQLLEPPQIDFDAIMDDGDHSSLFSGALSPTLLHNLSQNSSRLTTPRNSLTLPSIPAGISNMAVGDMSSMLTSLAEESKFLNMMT
UniProt P56726, residues 33-793: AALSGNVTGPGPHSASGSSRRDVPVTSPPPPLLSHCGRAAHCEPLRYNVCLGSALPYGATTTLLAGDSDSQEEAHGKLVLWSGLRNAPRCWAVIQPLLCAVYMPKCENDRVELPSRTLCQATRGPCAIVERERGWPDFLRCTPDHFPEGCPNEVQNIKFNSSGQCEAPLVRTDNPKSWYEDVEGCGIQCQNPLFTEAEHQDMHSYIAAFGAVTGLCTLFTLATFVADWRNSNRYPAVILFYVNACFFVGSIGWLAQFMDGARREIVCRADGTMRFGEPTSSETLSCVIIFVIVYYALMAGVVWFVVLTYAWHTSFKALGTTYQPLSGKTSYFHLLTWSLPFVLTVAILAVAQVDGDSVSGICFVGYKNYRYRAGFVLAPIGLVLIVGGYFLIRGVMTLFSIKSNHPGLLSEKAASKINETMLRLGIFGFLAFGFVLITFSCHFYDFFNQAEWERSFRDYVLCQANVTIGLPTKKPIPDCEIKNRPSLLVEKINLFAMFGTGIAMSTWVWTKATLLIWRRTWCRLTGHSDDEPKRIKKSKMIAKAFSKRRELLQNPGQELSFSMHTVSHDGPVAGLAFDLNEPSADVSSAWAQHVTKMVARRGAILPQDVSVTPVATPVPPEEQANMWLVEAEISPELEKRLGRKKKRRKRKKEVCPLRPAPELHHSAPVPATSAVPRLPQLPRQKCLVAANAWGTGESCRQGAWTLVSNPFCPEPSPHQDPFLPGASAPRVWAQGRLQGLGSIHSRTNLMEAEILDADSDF

Myc-SuFu = target: T2, Myc-SuFu (UniProt Q9Z0P7); assay: co-IP; anti-Myc immunoprecipitates from lysates of C3H10T1/2 cells transfected with the indicated plasmids (Myc-SuFu, HA-Gli1, KIF3A phosphomimetic mutants) and cultured with NSC23766 10 μg/ml 48 h, blotted for HA
T2 sequence: T1 sequence

[2] = target: T3, Vav2, endogenous (mouse (endogenous in C3H10T1/2)) (UniProt Q60992); assay: co-IP; endogenous proteins; anti-Vav2 or anti-Smo immunoprecipitates from total C3H10T1/2 cell lysates, blotted for Smo, Vav2 or phospho-Vav2; cells with or without N-Shh 100 ng/ml 24 h; IgG as negative control
T3 sequence: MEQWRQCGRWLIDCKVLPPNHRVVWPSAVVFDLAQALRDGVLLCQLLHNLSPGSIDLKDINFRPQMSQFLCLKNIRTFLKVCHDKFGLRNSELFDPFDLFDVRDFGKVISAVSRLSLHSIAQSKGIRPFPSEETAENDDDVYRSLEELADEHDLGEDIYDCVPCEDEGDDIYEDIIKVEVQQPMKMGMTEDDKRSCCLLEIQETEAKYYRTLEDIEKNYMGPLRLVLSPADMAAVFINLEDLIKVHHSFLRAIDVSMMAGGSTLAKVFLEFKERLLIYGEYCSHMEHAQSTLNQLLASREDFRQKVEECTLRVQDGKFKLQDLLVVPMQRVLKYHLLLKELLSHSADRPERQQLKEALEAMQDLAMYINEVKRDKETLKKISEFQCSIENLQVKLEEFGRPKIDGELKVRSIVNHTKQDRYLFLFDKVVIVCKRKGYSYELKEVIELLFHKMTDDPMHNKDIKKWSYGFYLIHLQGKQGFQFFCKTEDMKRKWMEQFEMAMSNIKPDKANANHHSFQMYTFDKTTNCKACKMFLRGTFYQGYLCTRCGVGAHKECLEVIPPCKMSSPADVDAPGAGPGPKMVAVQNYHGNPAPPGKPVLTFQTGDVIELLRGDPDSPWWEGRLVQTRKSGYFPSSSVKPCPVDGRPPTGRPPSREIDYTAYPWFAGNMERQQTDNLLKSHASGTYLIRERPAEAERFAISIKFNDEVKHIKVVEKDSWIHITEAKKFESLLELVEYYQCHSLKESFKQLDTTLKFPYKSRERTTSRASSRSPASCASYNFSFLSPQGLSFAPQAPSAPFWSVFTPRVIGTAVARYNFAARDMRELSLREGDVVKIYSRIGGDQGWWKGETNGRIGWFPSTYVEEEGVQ

[3] = target: T4, Myc-tagged Vav2, full length (Vav2 FL) (UniProt P52735); assay: co-IP; anti-Myc immunoprecipitates from lysates of C3H10T1/2 cells transiently transfected with Myc-Vav2 constructs, blotted for endogenous Smo
T4 sequence: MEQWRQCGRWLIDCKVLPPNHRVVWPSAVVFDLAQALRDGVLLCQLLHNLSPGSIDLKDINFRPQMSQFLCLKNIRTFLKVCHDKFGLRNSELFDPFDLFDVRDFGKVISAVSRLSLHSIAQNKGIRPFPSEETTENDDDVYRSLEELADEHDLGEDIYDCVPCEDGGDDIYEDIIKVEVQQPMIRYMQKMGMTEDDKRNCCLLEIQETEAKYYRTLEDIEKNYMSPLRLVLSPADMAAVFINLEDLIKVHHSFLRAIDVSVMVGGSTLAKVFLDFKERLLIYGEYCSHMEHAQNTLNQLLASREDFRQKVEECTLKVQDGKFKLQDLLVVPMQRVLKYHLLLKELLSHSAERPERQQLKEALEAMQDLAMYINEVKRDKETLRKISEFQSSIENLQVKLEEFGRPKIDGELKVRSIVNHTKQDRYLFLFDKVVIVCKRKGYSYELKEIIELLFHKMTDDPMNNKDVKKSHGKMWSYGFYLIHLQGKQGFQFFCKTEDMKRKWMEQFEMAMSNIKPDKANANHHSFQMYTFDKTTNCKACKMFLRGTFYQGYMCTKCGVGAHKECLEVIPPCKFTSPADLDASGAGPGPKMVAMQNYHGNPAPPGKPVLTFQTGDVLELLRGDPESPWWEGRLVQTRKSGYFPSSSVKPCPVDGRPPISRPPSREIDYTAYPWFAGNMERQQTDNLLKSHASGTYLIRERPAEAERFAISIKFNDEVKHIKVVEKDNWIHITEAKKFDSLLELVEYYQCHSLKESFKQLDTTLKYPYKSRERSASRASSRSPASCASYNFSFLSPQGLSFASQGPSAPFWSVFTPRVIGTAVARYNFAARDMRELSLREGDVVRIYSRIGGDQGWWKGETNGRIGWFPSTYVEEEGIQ

[4] = target: T5, Myc-tagged N-terminus of Vav2 (Myc-Vav2-ΔC, aa 1-531) (UniProt P52735); assay: as above
T5 sequence: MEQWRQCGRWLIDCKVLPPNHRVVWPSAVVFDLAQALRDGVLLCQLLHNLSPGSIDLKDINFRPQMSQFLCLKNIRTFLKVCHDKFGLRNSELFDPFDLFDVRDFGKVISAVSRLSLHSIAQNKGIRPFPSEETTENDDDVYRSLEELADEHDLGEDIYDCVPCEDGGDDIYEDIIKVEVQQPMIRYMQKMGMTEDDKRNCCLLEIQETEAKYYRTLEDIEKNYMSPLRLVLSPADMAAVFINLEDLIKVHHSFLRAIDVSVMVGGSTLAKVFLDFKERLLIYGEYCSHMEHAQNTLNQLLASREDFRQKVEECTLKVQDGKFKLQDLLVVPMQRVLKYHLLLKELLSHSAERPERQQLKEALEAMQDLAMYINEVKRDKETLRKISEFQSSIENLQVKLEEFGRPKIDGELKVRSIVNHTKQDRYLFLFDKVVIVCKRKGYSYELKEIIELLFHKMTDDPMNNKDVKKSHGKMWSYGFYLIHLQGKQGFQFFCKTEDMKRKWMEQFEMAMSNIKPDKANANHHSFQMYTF

[5] = target: T6, Myc-tagged C-terminus of Vav2 (Myc-Vav2-ΔN, aa 532-877) (UniProt P52735); assay: as above
T6 sequence: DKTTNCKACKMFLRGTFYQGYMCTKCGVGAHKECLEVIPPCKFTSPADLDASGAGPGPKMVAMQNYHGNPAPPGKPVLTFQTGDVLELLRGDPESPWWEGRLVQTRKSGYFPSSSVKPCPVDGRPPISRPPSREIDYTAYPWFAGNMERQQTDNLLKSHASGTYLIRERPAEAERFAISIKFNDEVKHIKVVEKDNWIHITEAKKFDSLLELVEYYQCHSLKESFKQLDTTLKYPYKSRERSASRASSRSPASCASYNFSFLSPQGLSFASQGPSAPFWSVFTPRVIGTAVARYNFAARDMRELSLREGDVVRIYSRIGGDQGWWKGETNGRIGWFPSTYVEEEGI

binding [1]: binds
Substance: Gli1, endogenous (from UniProt P47806 1-1111)

binding [1]: binds
Substance: Gli2, endogenous (from UniProt Q0VGT2 1-1544)

binding (Myc-SuFu): binds
Substance: HA-Gli1 (from UniProt P47806 1-1111)

binding [2]: binds
binding [3]: binds
binding [4]: no binding
binding [5]: binds
Substance: Smoothened (Smo), endogenous (from UniProt P56726 33-793) (receptor)

Source: paper PMC8771550
